Out of some 45,000 compounds screened, about 65 (0.1%) were called active. Calls come from the whole dose curve; as a rule, active = well fitted activation curve with a large enough effect; inconclusive = small, poorly fitted or top-dose-only effect; inactive = no such curve, though single readings can be large or run the other way. The list shows a part of the results.

The target in this experiment is Galactocerebrosidase (Homo sapiens) (UniProt P54803). The experiment is described as follows: A Novel Cell-Based Assay to Identify Small Molecules for B -Galactocerebrosidase. Note: 0% is about no effect; nearly all actives have a fitted effect of over 65% in size. As to conditions: 145M-Twi-hGALC-G270D cells (Twitcher mouse brain line with human GALC G270D), HMU-beta-Gal fluorescence, 48 h; series mostly up to 57.5 µM; activation: at the top concentration. The essentials: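 Fluorescence readout: HMU-β-gal cleavage by mutant GALC (0.1 mM final, citrate/phosphate pH 5.2 with 1 mg/mL taurocholate), stopped with carbonate/bicarbonate plus Triton X-100. Cells: murine Twitcher 145M-Twi expressing human G270D GALC; qHTS for activators.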
UniProt P54803, sequence (P54803 whole entry, looked up): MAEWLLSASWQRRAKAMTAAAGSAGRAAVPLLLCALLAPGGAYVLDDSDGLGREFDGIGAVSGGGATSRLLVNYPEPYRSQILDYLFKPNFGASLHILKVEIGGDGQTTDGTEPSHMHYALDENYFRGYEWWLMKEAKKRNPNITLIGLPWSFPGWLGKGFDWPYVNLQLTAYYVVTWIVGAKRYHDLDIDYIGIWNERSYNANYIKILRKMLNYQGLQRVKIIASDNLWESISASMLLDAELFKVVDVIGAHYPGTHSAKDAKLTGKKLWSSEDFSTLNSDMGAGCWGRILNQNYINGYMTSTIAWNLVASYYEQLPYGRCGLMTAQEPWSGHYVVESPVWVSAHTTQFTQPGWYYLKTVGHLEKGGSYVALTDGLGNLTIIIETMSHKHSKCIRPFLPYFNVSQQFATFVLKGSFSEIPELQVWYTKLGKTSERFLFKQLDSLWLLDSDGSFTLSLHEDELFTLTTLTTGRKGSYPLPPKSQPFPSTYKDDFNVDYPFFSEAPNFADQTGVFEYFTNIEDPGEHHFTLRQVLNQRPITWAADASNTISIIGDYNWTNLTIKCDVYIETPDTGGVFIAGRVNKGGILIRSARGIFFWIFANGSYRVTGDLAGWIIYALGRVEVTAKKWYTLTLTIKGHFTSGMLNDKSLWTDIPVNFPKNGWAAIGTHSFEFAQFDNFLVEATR
On to `CCCCOc1ccccc1C1CC(=O)Nc2cc(C)c(C)cc21` (stereo not drawn), for which the “activation” value was inactive: -24%. `O=C(CCN1C(=O)c2ccccc2Sc2ncccc21)Nc1ccc(F)cc1`: the “activation” value was inactive: -15.1%.

For `CC(CCc1ccccc1)NC(=O)Cn1ncc2c3ccccc3n(Cc3ccccc3)c2c1=O` (stereo not drawn), the “activation” value is inactive: 1.83%.

`CC(C)CNc1ncnc2onc(-c3ccc(Cl)cc3)c12`: the “activation” value is inactive: -9.78%. In the case of `CCOC(=O)c1ccc(NC(=O)c2oc3c(c2C)-c2nn(Cc4ccccc4Cl)cc2CC3)cc1`, the “activation” value is inactive: -14.8%. As for `COc1ccc(-c2nnc(SCC(=O)Nc3c(C)cccc3C)nc2-c2ccc(OC)cc2)cc1`, the “activation” value was inactive: -11.5%.

Turning to `COc1cccc(CNC(=O)CCn2cnc3ccccc3c2=O)c1`, the “activation” value was inactive: -20.7%. In the case of `COc1ccc(CN(Cc2ccco2)C(=O)COc2ccccc2OC)cc1`, the “activation” value was inactive: -3.8%. On to `CCc1ccc2occ(CC(=O)Nc3ccc(OC)c(Cl)c3)c2c1`, for which the “activation” value was inactive: -13.7%.

As for `CCOc1ccc(C(=O)Oc2c(Sc3ccccc3)c(C)nn2C(C)(C)C)cc1OCC`, the “activation” value is inactive: -18.6%.

`Cc1nc(SCC(=O)Nc2ccc(C)c(Cl)c2)cc(-c2ccccc2)n1`: the “activation” value was inactive: -15.6%. For the compound `O=C(Nc1ccccc1Cl)[C@H](CSCc1ccccc1)N1Cc2ccccc2C1=O`, the “activation” value is inactive: -13.9%. As for `COc1ccccc1N1CCN(S(=O)(=O)c2ccc(F)c(C(=O)Nc3ccc(Cl)cc3C(F)(F)F)c2)CC1`, the “activation” value was inactive: -3.75%. As to `CC(C)c1ccc(CNC(=O)c2ccc(N3CCCC3)c(NC(=O)NCc3ccccc3)c2)cc1`, the “activation” value was inactive: -8.76%. On to `O=C(c1ccc2c(c1)CCN2S(=O)(=O)c1ccccc1)N1CCN(c2ccccc2F)CC1`, for which the “activation” value is inactive: -9.27%. For `CCc1ccccc1-n1cnc2cc(C(=O)NC3CCCCCC3)ccc21` the value was inactive: -5.32%; for `CCCCNC(=O)CCc1c(C)nc2cc(-c3ccccc3)nn2c1C`, inactive: -11.7%; for `Cc1ccc(OCC(=O)Nc2c(C(=O)c3ccc(Cl)cc3)oc3ccccc23)cc1C`, inactive: -1.5%.

In the case of `CC(=O)N1CCCc2cc(S(=O)(=O)N3CCCC(C(=O)NC(C)C)C3)ccc21` (stereo not drawn), the “activation” value is inactive: -20.5%. For the compound `COc1ccc(N2C(=O)C(CC(=O)Nc3ccccc3)N(CCC3=CCCCC3)C2=O)cc1` (stereo not drawn), the “activation” value was inactive: -15.5%. Consider `Cc1[nH]c2ccccc2c1C1(O)C(=O)N(Cc2ccccc2)c2ccc(Cl)cc21` (stereo not drawn), for which the “activation” value is inactive: -6.07%. For `COc1ccc(-c2nnc(SC(C)C(=O)O)o2)cc1` (stereo not drawn) the value was inactive: -2.09%. With `CSc1ccc(-c2nc3cccc(C)n3c2Nc2ccc3c(c2)OCO3)cc1`, the “activation” value was inactive: -13.6%. Regarding `O=C(CN1C(=O)CSc2ccc(S(=O)(=O)N3CCCC3)cc21)NCc1ccccc1Cl`, the “activation” value is inactive: -18.9%. For `COc1ccc(-n2nc(C(=O)Nc3ccc(C(C)=O)cc3)nc2-c2ccccc2)cc1`, the “activation” value is inactive: -11.4%. As to `CCOc1ccc(C2c3c(oc4ccc(C)cc4c3=O)C(=O)N2CCCN(C)C)cc1OC` (stereo not drawn), the “activation” value is inactive: 1.71%.

As to `Cc1cc(-c2ccc(S(=O)(=O)Nc3ccc(Cl)cc3)cc2)on1`, the “activation” value was inactive: -8.29%. As to `CC(C)Oc1ccc(CNC(=O)c2sc3ncccc3c2-n2cccc2)cc1`, the “activation” value was inactive: -9.69%. Turning to `CO[C@H]1C=CO[C@@]2(C)Oc3c(C)c(O)c4c(O)c(c(/C=N/N5CCN(C)CC5)c(O)c4c3C2=O)NC(=O)/C(C)=C\C=C[C@H](C)[C@H](O)[C@@H](C)[C@@H](O)[C@@H](C)[C@H](OC(C)=O)[C@@H]1C`, the “activation” value is inactive: -17%.

Turning to `Cc1cn(C)c(CC(=O)Nc2ccc(F)cc2Cl)c1C(=O)O`, the “activation” value was inactive: -5.44%. For `O=S(=O)(c1ccc(Cl)cc1)c1nc(-c2cccs2)oc1SCc1ccccc1F`, the “activation” value was inactive: -6.51%. Next, `COc1ccc(-c2nnc(SCCOc3ccccc3C)o2)cc1OC`: inactive: -18%. As for `Cc1ccc(OCC(=O)Nc2nonc2-c2ccc(Br)cc2)cc1C`, the “activation” value is inactive: -11.8%. Take `Cc1cc(C)cc(OCCSc2nc3ccc(NC(=O)COc4ccccc4)cc3s2)c1`: the “activation” value was inactive: -25.8%.

For the compound `CCOC(=O)c1c(NC(=O)C2c3ccccc3Oc3ccccc32)sc2c1CCC(CC)C2` (stereo not drawn), the “activation” value was inactive: -1.74%. Turning to `COc1ccc(N2CCN(C(=O)C(C)n3nc(C)c4sc5ccccc5c4c3=O)CC2)cc1` (stereo not drawn), the “activation” value was inactive: -13.1%.

Consider `CCc1ccc(NC(=O)Cn2nc(SC)c(S(=O)(=O)c3ccc(OC)cc3)c2N)cc1`, for which the “activation” value was inactive: -16.7%. Next, `CCOC(=O)C(CC)N1CCN(Cc2ccc(F)cc2)C(=O)C1=O` (stereo not drawn): inactive: -14.9%; `COc1ccc(-c2ccc(NS(=O)(=O)c3cc(C)c(C)cc3C)cc2)nn1`: inactive: -13%; `O=C(Nc1nc2c(F)cccc2s1)c1ccc(S(=O)(=O)N2CCCc3ccccc32)cc1`: inactive: -5.6%. For the compound `CCn1nc(C)c2c(-c3ccccc3)cc(=O)n(C(C)C(=O)Nc3cc(C)ccc3C)c21` (stereo not drawn), the “activation” value was inactive: -14.1%.

With `O=C(c1ccc(F)cc1)C1CCN(CCn2c(=O)[nH]c3ccccc3c2=O)CC1`, the “activation” value is inactive: -11.7%.

As for `CC(=O)C1=C(c2cccc([N+](=O)[O-])c2)N(C(C)=O)n2c(nnc2-c2ccc(C)cc2)S1`, the “activation” value was inactive: -10.5%. For the compound `CCS(=O)(=O)NCC(c1ccco1)N1CCN(c2ccc(F)cc2)CC1` (stereo not drawn), the “activation” value was inactive: -8.34%. For the compound `CCOC(=O)c1c(S(=O)(=O)N2CCCC(C(=O)N3CCN(c4cc(C)ccc4C)CC3)C2)c(C)n(C)c1C` (stereo not drawn), the “activation” value is inactive: -20.8%. For the compound `CCc1ccc(NC(=O)Cn2c(=O)n(CCCC(=O)NCc3ccc4c(c3)OCO4)c(=O)c3ccccc32)cc1`, the “activation” value was inactive: -1.57%. On to `CC(=O)c1cccc(NC(=O)CCn2nc(C)c(S(=O)(=O)N(C)C)c2C)c1`, for which the “activation” value is inactive: -3.56%. `CC(C)Nc1nc2c(S(=O)(=O)c3cccc(Cl)c3)nnn2c2ccsc12`: the “activation” value is inactive: -11.2%. For `Cc1ccc(C(=O)NCC(c2cccs2)S(=O)(=O)c2ccccc2)cc1C` (stereo not drawn) the value was inactive: 2.9%; for `CC(C)c1ccc(S(=O)(=O)N2CCN(CC(=O)Nc3ccccc3C(F)(F)F)CC2)cc1`, inactive: -9.99%. With `CC(C)CCNC(=O)c1ccc2nc(CCc3ccccc3)oc2c1`, the “activation” value was inactive: -11.2%.

For the compound `Cc1cc2nc3c(=O)[nH]c(=O)nc-3n(C[C@H](O)[C@H](O)[C@H](O)CO)c2cc1C`, the “activation” value was inactive: -6.15% [at 23.8 µM].

As to `COC(=O)c1nnn(CC(=O)Nc2c(C)cccc2C)c1N`, the “activation” value was inactive: -18.2%. As to `COc1cc(CN(C(=O)Nc2cccc(Cl)c2)c2ccccn2)cc(OC)c1OC`, the “activation” value was inactive: -22.7%. For `COC(=O)c1ccc(C(=O)OC)c(NC(=O)c2c(-c3ccccc3)noc2C)c1`, the “activation” value was inactive: 16.7%. For `COc1ccc(CCNc2nc(SCc3ccccc3F)nc3ccccc23)cc1OC`, the “activation” value is inactive: -8.55%. Next, `CCCCC(CC)CNC(=O)CCCCn1c(=O)[nH]c2ccsc2c1=O` (stereo not drawn): inactive: -17%; `COC(=O)c1sc(N2C(=O)c3oc4ccc(C)cc4c(=O)c3C2c2ccc(O)c(OC)c2)nc1C` (stereo not drawn): inactive: -15.6%; `CCOC(=O)c1c(C)oc2nc(C)nc(NCCc3ccc(OC)c(OC)c3)c12`: inactive: -11.4%. Next, `CCOC(=O)Cc1c(C)nc2cc(-c3ccc(C(C)(C)C)cc3)nn2c1C`: inactive: 4.83%; `Cc1csc2nc(COc3ccc(NC(=O)C(C)C)cc3)cc(=O)n12`: inactive: 0.771%; `CCc1ccc(NC(=O)C2CCCN2S(=O)(=O)c2ccc3nc(-c4ccccc4)[nH]c3c2)cc1` (stereo not drawn): inactive: -23.8%. For `CCN(CC)S(=O)(=O)c1ccc2c(c1)c(=O)c(C(=O)NCCc1ccccc1)cn2C` the value was inactive: -13.8%; for `COc1ccc(C2CC(=O)c3cnc4c(-c5ccc(F)cc5)c(C)nn4c3C2)cc1OC` (stereo not drawn), inactive: -13.7%; for `COc1ccc(-n2ncc(C(=O)N3CCN(C4CCCCC4)CC3)c2C2CCN(C(=O)OC(C)(C)C)CC2)cc1`, inactive: 1.88%. On to `Cc1ccccc1NC(=O)CC1NCCNC1=O` (stereo not drawn), for which the “activation” value is inactive: -16.8%.

Take `C=CCc1ccccc1OCc1nc2ccc(C)cc2[nH]1`: the “activation” value was inactive: -13.8%. Take `Cc1ccc(NC(=O)c2c3c(nc4ccccc24)C(=O)N(C2CCCCC2)C3)cc1F`: the “activation” value was inactive: -19.7%. For the compound `Cn1c(=O)n(CC(=O)O)c(=O)c2c1nc1n2CCCN1c1ccc(Cl)cc1`, the “activation” value was inactive: -10.4%. In the case of `CCOC(=O)c1c(NC(=O)CSc2nc(-c3ccc(OC)cc3)cc(C(F)(F)F)n2)sc(C)c1C`, the “activation” value was inactive: -16.3%. With `Cc1ccc(C2C=C(c3ccccc3)Nc3nc(NS(=O)(=O)c4ccc(C)cc4)nn32)cc1` (stereo not drawn), the “activation” value is inactive: -8.18%. As to `Cc1ccc2oc(=O)c3cnn(CC(=O)N4CCN(c5ccccc5F)CC4)c3c2c1`, the “activation” value is inactive: -11.7%. Consider `Cc1ccc(NC(=O)Nc2cn(C)c(=O)c3ccccc23)c(Cl)c1`, for which the “activation” value is inactive: -11.7%.

In the case of `Cc1cccc(N2CCN(C(=O)C3CCN(S(=O)(=O)c4c(C)noc4/C=C/c4ccccc4F)CC3)CC2C)c1` (stereo not drawn), the “activation” value was inactive: -9.86%. With `CCc1ccccc1NC(=O)c1ccc(Cn2nc(N3CCN(c4ccccc4)CC3)ccc2=O)o1`, the “activation” value is inactive: -8.96%. Take `Cc1cc(=O)n(Cc2ccccc2)c2c1c(C)nn2-c1ccccc1`: the “activation” value is inactive: -11.9%. As for `Cc1ccc(CNC(=O)Cn2nc(N3CCN(c4ccccc4)CC3)ccc2=O)cc1`, the “activation” value is inactive: -8.95%. In the case of `Cc1cccc(N2CCN(C(=O)c3cnn(-c4ccc(F)cc4F)c3C3CCN(C(=O)OC(C)(C)C)CC3)CC2)c1C`, the “activation” value is inactive: -16.9%.

On to `CCOc1ccc(NC(=O)CC2C(=O)N(c3ccccc3)C(=O)N2C2CCCC2)cc1` (stereo not drawn), for which the “activation” value was inactive: 5.31%. For `Cc1ccc(NC(=O)CSc2nc3ccccc3c(=O)n2CCC(=O)NC2CCCCC2)cc1C` the value was inactive: -3.4%; for `CCCNC(=O)CSc1c2c(nc3ccc(Cl)cc13)CCCC2`, inactive: -2.11%. Next, `CCOC(=O)c1cc2c(=O)n3ccccc3nc2n(Cc2ccco2)c1=NC(=O)c1cccc(C)c1`: inactive: -1.7%; `CCCn1c2ccccc2c2cnn(CC(=O)N(CC)c3cc(C)ccc3C)c(=O)c21`: inactive: -8.26%; `CCOc1ccccc1NC(=O)c1cc2cc3cc(C)ccc3nc2s1`: inactive: -9.77%. For the compound `COc1ccc(-n2c(SCC(=O)NCc3ccco3)nc3c([nH]c4ccccc43)c2=O)cc1`, the “activation” value is inactive: -2.9%. As to `CNC(=O)CCCN1C(=O)CCn2nc(-c3cn(C)c4ccccc34)cc21`, the “activation” value is inactive: -12.8%.

With `COc1ccc(OCC(=O)Nc2cccc(C(=O)OCc3cc(=O)n4nc(C)sc4n3)c2)cc1`, the “activation” value was inactive: 0.413%.

For `COc1cccc(NC(=O)c2sc3nc(C)c(C(=O)Nc4ccc(C)cc4C)c(-c4ccco4)c3c2N)c1`, the “activation” value was inactive: -22%. Regarding `CCc1cccc(NC(=O)CSc2nc3ccccc3nc2N2CCCCC2)c1`, the “activation” value was inactive: -19%. As to `COCc1cc(C)nc2sc(C(=O)Nc3ccc(C(C)=O)cc3)c(N)c12`, the “activation” value is inactive: -5.2%. Next, `Cc1nc2c3ccccc3nc(NNC(=O)CCC(=O)N3CCN(c4cc(Cl)ccc4C)CC3)n2n1`: inactive: -17.1%; `Cc1ccc(C)c(N2CCN(C(=O)CCS(=O)(=O)c3cc(Br)cc4c3N(C(=O)C3CC3)CC4)CC2)c1`: inactive: -14.7%; `CCC(=O)N1CCc2cc(CNS(=O)(=O)c3ccc(C(C)C)cc3)ccc21`: inactive: -21.3%.

(Values after PubChem BioAssay AID1159614 (National Center for Advancing Translational Sciences (NCATS), 2016).)
